# Laboratory results reported in paper PMC4336329 (PLoS ONE, 2015).
# Out of some 310,000 compounds screened, about 14,000 (4.5%) showed an effect of 50% or more. The effect is printed as a negative number. This is one part of the list.
# Biological target: human ether-à-go-go-related gene (hERG) potassium channel (human, UniProt Q12809)
# Experiment: primary screen, population patch clamp on CHO cells stably expressing hERG
# 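Further: peak tail current of the secondary pulse compared with the same well before compound.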
# Sequence of human ether-à-go-go-related gene (hERG) potassium channel (Q12809 whole entry, looked up): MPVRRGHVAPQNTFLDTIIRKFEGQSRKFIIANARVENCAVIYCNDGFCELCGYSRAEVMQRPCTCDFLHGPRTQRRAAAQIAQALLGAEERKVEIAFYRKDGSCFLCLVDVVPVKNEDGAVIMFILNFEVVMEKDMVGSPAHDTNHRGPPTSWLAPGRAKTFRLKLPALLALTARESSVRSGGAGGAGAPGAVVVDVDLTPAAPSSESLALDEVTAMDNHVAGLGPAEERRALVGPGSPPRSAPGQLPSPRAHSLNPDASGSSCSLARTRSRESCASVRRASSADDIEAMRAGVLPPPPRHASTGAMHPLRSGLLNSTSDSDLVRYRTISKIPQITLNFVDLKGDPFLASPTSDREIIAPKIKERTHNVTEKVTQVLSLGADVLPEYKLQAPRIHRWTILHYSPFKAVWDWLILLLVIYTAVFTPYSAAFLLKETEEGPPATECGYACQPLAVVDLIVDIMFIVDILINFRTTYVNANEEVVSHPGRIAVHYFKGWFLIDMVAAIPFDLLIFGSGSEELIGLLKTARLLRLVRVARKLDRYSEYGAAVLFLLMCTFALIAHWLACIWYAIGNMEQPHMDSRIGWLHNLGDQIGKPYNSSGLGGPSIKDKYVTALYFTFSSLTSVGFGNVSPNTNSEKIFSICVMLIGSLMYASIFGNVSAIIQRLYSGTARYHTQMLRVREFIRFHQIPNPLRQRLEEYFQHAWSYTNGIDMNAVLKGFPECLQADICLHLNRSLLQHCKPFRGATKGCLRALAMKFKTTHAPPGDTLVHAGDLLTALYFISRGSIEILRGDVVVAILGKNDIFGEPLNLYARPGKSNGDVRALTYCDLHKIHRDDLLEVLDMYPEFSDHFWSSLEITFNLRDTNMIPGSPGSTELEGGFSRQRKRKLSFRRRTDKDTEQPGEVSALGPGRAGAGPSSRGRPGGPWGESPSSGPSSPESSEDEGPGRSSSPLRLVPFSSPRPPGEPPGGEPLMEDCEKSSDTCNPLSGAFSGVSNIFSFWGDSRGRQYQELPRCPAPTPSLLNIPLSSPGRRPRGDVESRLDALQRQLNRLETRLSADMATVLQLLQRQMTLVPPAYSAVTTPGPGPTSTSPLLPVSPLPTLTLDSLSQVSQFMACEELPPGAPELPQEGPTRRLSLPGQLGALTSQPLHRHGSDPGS
row,Compound,"hERG current change (%, negative = inhibition) at 10uM [%]"
1,CC1Cc2cc(-c3csc(NC(=O)Cc4cccs4)n3)ccc2N1S(C)(=O)=O (stereo not drawn),7.28
2,Cc1cc(=O)oc(C)c1C(=O)NCCCN1CCN(c2ccc(F)cc2)CC1,-53.6
3,CCOC(=O)c1c(NC(=O)COC(=O)c2cc(OC)c(OC)cc2[N+](=O)[O-])sc(C)c1C,3.48
4,Cc1onc(-c2c(F)cccc2Cl)c1C(=O)ONC(=O)c1ccccc1,8.85
5,COCCNC(=O)/C(C#N)=C/c1c(N2CCN(c3ccccc3)CC2)nc2ccccn2c1=O,-20.7
6,NC(=O)c1c(-c2cccs2)csc1N,3.94
7,Cc1ccc(C(=O)Nc2nc(-c3ccc([N+](=O)[O-])cc3)cs2)o1,15.9
8,COC(=O)c1cccc(NC(=O)c2cccc(OC)c2)c1,-2.12
9,CC(C)Cc1nnc(NS(C)(=O)=O)s1,19.3
10,O=S(=O)(NC1CC1)c1ccc(S(=O)(=O)N2CCCC(c3nc(-c4cccnc4)no3)C2)cc1 (stereo not drawn),-26.3
11,CC1(C)Cc2c(sc3nc(C4CC4)n(N)c(=O)c23)CO1,9.63
12,Cc1cc(C)cc(NC(=O)CCN2C(=O)c3ccccc3S2(=O)=O)c1,-7.45
13,CCCn1c(SCC(=O)N2CCCc3ccccc32)nnc1-c1ccccn1,-3.47
14,Nc1nonc1-n1nnc(C(=O)N/N=C/c2cccc(Cl)c2)c1CN1CCCCCC1,18.4
15,O=S(=O)(Nc1nccs1)c1ccc(NS(=O)(=O)c2cccs2)cc1,8.27
16,O=C(Nc1cc(Cl)ccc1-n1cncn1)c1cn2ccccc2n1,-1.79
17,CSc1ncc(Cl)c(C(=O)NCc2ccc3c(c2)OCO3)n1,7.54
18,CCOCCCNC(=O)C1CCN(S(=O)(=O)c2c(C)noc2/C=C\c2ccc(OC)cc2)CC1,0.39
19,Cc1cccc(NC(=O)CN(C)S(=O)(=O)c2cnc[nH]2)c1,9.84
20,CCN(CC)c1nc(N)c2c(N)nc(OC)cc2c1C#N,1.77
21,O=C(O)CCc1ccc(-c2ccc(F)cc2)n1Cc1ccco1,-0.928
22,CCCCN(Cc1ccco1)C(=O)C1CCCN(c2ncnc3c2nc2n3CCCCC2)C1 (stereo not drawn),-46

row,Compound,"hERG current change (%, negative = inhibition) at 10uM [%]"
1,CC1CCCCC12NC(=O)N(CC(=O)NCCc1c[nH]c3ccccc13)C2=O (stereo not drawn),-25.8
2,Cc1ccsc1/C=C/C(=O)O,20
3,CC(C)CNC(=O)c1cccc(NC(=O)C2CCCO2)c1 (stereo not drawn),12.6
4,Cc1ccc(N2CC(C(=O)Nc3nnc(SCC(N)=O)s3)CC2=O)cc1 (stereo not drawn),18.8
5,Cc1cccc(-c2onc3ccc(C4(C)OCCO4)cc23)c1,-1.6
6,CCOC(=O)c1cc(NC(=O)c2c(C)noc2C)cc(C(=O)OCC)c1,-3.5
7,CCOC(=O)c1ccc(NC(=O)CN(Cc2ccc(Cl)cc2)S(C)(=O)=O)cc1,-6.57
8,O=C(NC1CCCCCC1)c1cccc(N2CCCC2=O)c1,4.39
9,O=C(CSc1nnc(CNC(=O)c2ccc(F)cc2)o1)c1ccccc1,3.47
10,CN(C)S(=O)(=O)c1ccc(NC(=O)COc2ncnc3c2cnn3-c2ccccc2)cc1,-19.8
11,CCC(C)NC(=S)Nc1ccc(C(=O)OC)cc1 (stereo not drawn),15
12,O=C(NCCc1ccccc1)C1CCCN(S(=O)(=O)c2cccs2)C1 (stereo not drawn),-28.9
13,Cc1c(OCC(=O)NC(Cc2ccc(Cl)cc2)C(=O)O)ccc2c3c(c(=O)oc12)CCCC3 (stereo not drawn),20
14,O=C(CCCN1C(=O)/C(=C\c2cccs2)SC1=S)NNC(=O)c1ccncc1,0.291
15,O=C(CSc1nc(=O)n(CCCN2CCOCC2)c2c1CCCC2)Nc1ccccc1Cl,-42.9
16,CCN(CC)S(=O)(=O)c1cc(C)c(C)cc1Br,-14.8
17,CS(=O)(=O)N1CCC(Oc2cccc(C(=O)NCCCC3CCCC3)c2)CC1,-30.3
18,Cc1cc(-c2ccc(C)c(S(=O)(=O)N3CCN(c4ccc(F)cc4)CC3)c2)on1,-8.14
19,O=C(Cn1ncc(Cl)c(Cl)c1=O)c1ccc(Cl)cc1,-15.8
20,CCn1nc(CC(C)C)cc1C(=O)N1CCCC(Nc2ccc(F)cc2)C1 (stereo not drawn),-3.94
21,Cc1ccc(N2CS(=O)(=O)/C(=C/N(C)C)C2=O)cc1,-5.73
22,COc1ccc(NC(=O)Cc2c(C)n(C(=O)c3ccc(Cl)cc3)c3ccc(OC)cc23)cc1,20.8

row,Compound,"hERG current change (%, negative = inhibition) at 10uM [%]"
1,Cc1cc(Nc2ccccc2)n(-c2cccc(Cl)c2)n1,-43.1
2,O=C(/C=C/c1ccco1)Nc1ccc(-c2nc3ccccc3[nH]2)cc1,-0.11
3,O=C(NNC(=O)c1ccccc1Cl)c1ccncc1,-1.7
4,COc1ccc(NC(=O)CNC(=O)N2CC(=O)Nc3ccccc32)cc1OC,25.9
5,COc1ccc(CC(=O)Oc2ccccc2Cl)cc1S(=O)(=O)N1CCOCC1,8.06
6,CC(C)(NO)/C(=N/O)c1ccc(Br)cc1,0.417
7,COc1ccc(C(=O)Cc2ccc(OC)c(OC)c2)cc1,4.74
8,CN(Cc1ccccc1)C(=O)CN(C)S(=O)(=O)c1ccc(F)cc1,1.59
9,CCOC(=O)C(C(=O)OCC)c1cc(Br)c2noc3c2c1C(=O)c1ccccc1-3,13.6
10,O=C(O)c1cccc(N(CCO)CCO)c1,-1.13
11,CCC(=O)N1CCc2cc(S(=O)(=O)N3CCN(c4ccccc4Cl)CC3)ccc21,12.7
12,Cc1ccc(NC(=S)N2CCCCCC2)c(C)c1,-32.1
13,Cc1ccc(S(=O)(=O)NCC(=O)OCc2ccccc2Br)cc1,0.59
14,COc1ccc(S(=O)(=O)NCC(=O)NCc2cc(=O)n(C)c(=O)n2C)cc1F,12.6
15,Cc1nn(-c2ccccc2)c(C)c1/C=N/n1c(-c2ccccc2Br)n[nH]c1=S,-9.36
16,CCOC(=O)N1CCN(C(=O)c2oc3ccc(S(=O)(=O)N(CC)CC)cc3c2C)CC1,-12
17,Cc1cc(N(CCO)CCO)ccc1C(c1ccc(N(CCO)CCO)cc1C)c1ccccc1Cl,-0.487
18,Cc1cc(N/C(=N\S(=O)(=O)c2ccc(F)cc2F)c2ccccc2)no1,1.05
19,Cc1cc(C(=O)Nc2sc3c(c2C#N)CCC(C)C3)no1 (stereo not drawn),1.44
20,NC(=O)C1CCN(C(=O)/C=C/c2cc(Br)ccc2F)CC1,2.78
21,Cc1ccccc1N=C1c2ccccc2C(=O)C1[N+](=O)[O-] (stereo not drawn),-9.75
22,O=C(Nc1ccccc1F)N(CCCN1CCOCC1)Cc1cc2cc3c(cc2[nH]c1=O)OCCO3,-4.62

row,Compound,"hERG current change (%, negative = inhibition) at 10uM [%]"
1,O=C1Nc2ccc(Br)cc2C1=Nc1ccc(-c2nnc3n2CCCCC3)cc1,6.74
2,CC1CCCCC1N=CC1=C(O)CC(C)(C)CC1=O (stereo not drawn),-12.9
3,Cc1cccc(/C=N/c2sc3c(c2C#N)CCN(Cc2ccccc2)C3)c1O,-12.2
4,CCOc1ccc(CN2CCNC(=O)C2CC(=O)NCCc2cnccn2)cc1 (stereo not drawn),15
5,Cc1oc(-c2ccc(Cl)cc2)nc1CN1CCC(C(=O)NCCCN2CCCC(C)C2)CC1 (stereo not drawn),-16.5
6,c1cnn(-c2nc(N3CCOCC3)nc(N3CCOCC3)n2)c1,0.156
7,CC(C)[C@H](NC(=O)c1ccccc1)C(=O)OCc1nc2scc(-c3ccccc3)c2c(=O)[nH]1,1.74
8,COc1ccc(Nc2cc(C(=O)NCCCN3CCN(C)CC3)c3ccccc3n2)c(OC)c1,6.82
9,O=S(=O)(c1ccccc1)N(CC(O)CN1CCCC1)c1ccccc1 (stereo not drawn),-19
10,O=C(COc1cccc2cccnc12)NCc1cccs1,9.76
11,CCCN(CC1CC1)C(=S)Nc1ccc(Oc2ccccc2)cc1,-4.88
12,CC(C)(C)S(=O)(=O)c1ccccc1-c1noc(-c2ccccc2)c1C(N)=O,2.58
13,O=C(Nc1nc2ccccc2[nH]1)Nc1ccccc1F,18.4
14,N#C/C(=C/c1ccccc1[N+](=O)[O-])C(=O)NCc1ccco1,-11.4
15,Cc1cc(NC(=O)CSc2nc3ccccc3n2CC(=O)N2CCCCC2)no1,-12.2
16,Cc1ccc(SCC(=O)Nc2ccc(-c3nnc(-c4ccco4)o3)cc2)cc1,-0.93
17,O=C(CCc1ccccc1)N=C1SC2CS(=O)(=O)CC2N1c1cccc(F)c1 (stereo not drawn),-1.95
18,CCc1ccc(-n2c(SCC(=O)N3Cc4ccccc4CC3C(=O)O)nnc2-c2ccncc2)cc1 (stereo not drawn),16.7
19,Cc1cc(=O)n(C)c(=O)n1CCCCCCN1CCCC1.O=C(O)C(=O)O,8.96
20,Cc1ccc(NC(=S)N2CCN(S(=O)(=O)c3ccc(C)cc3)CC2)cc1,10.8
21,CCC(C(=O)n1cccc1C#N)c1ccccc1C (stereo not drawn),6.49
